Data taken from the RNAGym collection of RNA variant scans (doi:10.7554/elife.90254).
The source gives no read counts; variants with many changes may rest on few reads.

B1: OR4K15 (parent)
chain: GUUAACGGUCAUAGGCCAUGGAAACUAGGAGCACCAUUUCGCUGCCAGUGAAGAAAUGAACAAAGAAAAUCUGGGCCAGGCAGGCAUCAAAAGAAAUAGUCUUGCGCUCAACCAGAAAGUCUGUAAUCAUUUUAAGGGUA

Variants of: B1
Test: self-cleavage, relative activity (ratio to wild type); higher = more cleavage; in vitro, sequencing; the parent is a self-cleaving ribozyme

| Variant | self-cleavage |
| --- | --- |
| GUUAACGGUCAUAGGCCGUGGAAACUAGGGGCACCAUUUCGCUGCCAGUGAAGAAAUGAACAAAGAAAAUCUGGGCCAGGCAGGCACCAAAAGAAAUAGUCUUGCGCUCAACCAGAAAGUCUGUAAUCAUUUUAAGGGUA [A18G A30G U87C] | 0.9 |
| GUUAACGGUCAUAGGCCAUGGAAACUAGGAGCACCAUUUCGCUGCCAGUGAAGAAAUGAACAAAGAAAAUCUGGGCCAGGCAGGCACCAAAAGAAAUAGUCUUGCGCUCGACCAGAAAGUUUGUAAUCAUUUUAAGGGUA [U87C A110G C121U] | 0.29 |
| GUUAACGGUCAUAGGCCAUGGAAACUAGGAGCACCACUUCGCUGCCAGUGAAGAAAUGAACAAAGACAAUCUGGGCCUGGCAGGCAUCAAAAGAAAUAGUCUUGCGCUCAACCAGAAAGUCUGUAAUCAUUUUAGGGGUA [U37C A67C A78U A135G] | 0.43 |
| GUUAGCGGUCAUGGGCCAUGGAAACUAGGAGCACCAUUUCGCUGCCAGUGAAGAAAUGAACAAAGAAAAUCUGGGCCAGGCAGGCAUCAAAAGAAAUAGUCUUGCGCUCAACCAGAGAGUCUGUAAUCAUUUUAAGGGUA [A5G A13G A117G] | 0.7 |
| GUUAACGGUCAUAGGCCAUGGAAGCUAGGAGCACCAUUUCGCUGCCAGUGAAGAAAUGAACAGAGAAAAUCUGGGCCAGGCAGGCAUCAAGAGAAAUAGUCUUGCGCUCAACCAGAAAGUCUGUAAUCAUUUUAAGGGUA [A24G A63G A91G] | 1.42 |
| GUUAACGGUCAUAGGCCAUGGAAGCUAGGAGCACCAUUUCGCUGCCAGUGAAGAAAUGAACAAAGGAAAUCUGGGCCAGGCAGGCAUCAAAAGAAGUAGUCUUGCGCUCCACCAGAAAGUCUGUAAUCAUUUUAAGGGUA [A24G A66G A96G A110C] | 0.78 |
| GUUAACGGUCAUAGGCCGAGGAAACUAGGAGCACCGUUUCGCUGCCAGUGAAGAAAUGAACAAAGAAAAUCUGGGCCAGGCAGGCAUCAAAAGAAAUAGUCUUGCGCUCAACCAGAAAGUCUGUAAUCAUUUUAAGGGUA [A18G U19A A36G] | 1.07 |
| GUUAACGGUCAUAGGCCAUGGAAACUAGGAGCACCAUUCCGCUGCCAGUGAAGAAAUGAACAAAGAAGAUCUGGGCCAGGCAGGCAUCAAAAGAAAUAGUCUUGCGCUCAACCAGAAAGUCUGUAAUCACUUUAAGGGUA [U39C A68G U130C] | 0.94 |
| GUUAACGGUCAUAGGCCAUGGAAACUAGGAGCACCAUUUCACUGCCAGUGAUGAAAUGAACAAAGAAAAUCUGGGCCAAGCAGGCAUCAAAAGAAAUAGUCUUGCGCUCAACCAGAAAGUCUGUAAUCAUUUUAAGGGUA [G41A A52U G79A] | 0.11 |
| GUUAACGGUCAUAGGCCAUGGAAACUAGGAGCACCAUUUCGCUGCCAGUGAAGAAAUGAACAAAGAAAAUCUGGGCCAGGCAGGCAUCAAGAGAAAUAGCCUUGCGCUCAACCAGAAAGUCUGUAACCAUUUUAAGGGUA [A91G U100C U127C] | 1.31 |
| GUUAACGGUCAUAGGCCAUGGAAACUAGGAGCACCGUUUCGCUGCCAGUGAAGAAAUGAACAAAGAAAAUCUGGGCCAGGCAGGCGUCAAAAGAAAUAGUCUCGCGCUCAACCAGAAAGUCUGUAAUCAUUUUAAGGGUA [A36G A86G U103C] | 0.9 |
| GUUAACGGGCAUAGGCCAUGGAAACUAGGAGCACCUUUUCGCUGCCAGUGAAGAAAUGAACAAAGAAAAUCUGGGCCAGGCAGGCAUCAAAAGAAAUAGUCUUGCGCUCAACCAGAAAGUCUGCAAUCAUUUUAAGGGUA [U9G A36U U124C] | 0.88 |
| GUUAACGGCCAUAGGCCAUGGAAACUAGGAGCACCAUUUCGCUGCCAGUGAAGAAAUGAACAGGGAAAAUCUGGGCCAGGCAGGCAUCAAAAGAAAUAGUCUUGCGCUCAACCAGGAAGUCUGUAAUCAUUUUAAGGGUA [U9C A63G A64G A116G] | 1.42 |
| GUUAACGGUCAUAGGCCAUGGAAACUAGGAGCACCAUUUCGCUGCCAGUGAAGAAAUGAACAAAGAAGGUCUGGGCCAGGCAGGCAUCAAAAGUAAUAGUCUUGCGCUCAACCAGAAAGUCUGUAAUCAUUCUAAGGGUA [A68G A69G A94U U132C] | 0.55 |
| GUUAACGGACAUAGGCCAUGGAAGCUAGGAGCACCAUUUCGCCGCCAGUGAGGAAAUGAACAAAGAAAAUCUGGGCCAGGCAGGCACCAAAAGAAAUAGUCUUGCGCUCAACCAGAAAGUCUGUAAUCAUUUUAAGGGUA [U9A A24G U43C A52G U87C] | 1.5 |
| GUUAACGGUCAUAGGCCAUGGAAACUAGGAGCACCAUUUCGCUGCCAGUGAAGAAAUGAACAAAGAAAACCUGGGCCAGGCAGGCAACAGAAGAAAUAGUCUUGCGCUCAACCAGAAAGUCUGUAAUCAUUUUAAGGGUA [U70C U87A A90G] | 0.36 |
| GUUAACGGUCAUAGGCCGUGGAGACUAGGAGCACCAUUUCGCUGCCAGUGAAGAAAUGAACAAAGAAAAUCUGGGCCAGGCAGGCAUCAAAAGAAAUAGUCUUGCGCUCAACCAGAAAGUCAGUAAUCAUUUUAAGGGUA [A18G A23G U122A] | 1.15 |
| GUUAACGGUCAUAGGCCAUGGAAACUAGGAGCACCAUUUCGCUGCCAGUGAAGAAAUGAACAAAGAAGAUCUGGGCCAGGCAGGCAUCAAAAGAAAUAGUCUUGCGCUCAACCUGAAAGUCUGUAAUCAUUUUAAGGAUA [A68G A114U G138A] | 0.08 |
| GUUAACGGUCAUAGGCCAUGGAAACUAGGAGCACCAUUGCGCUGCCAGUGAAGAGAUGAACAAAGAAAGUCUGGGCCAGGCAGGCAUCAAAAGAAAUGGUCUUGCGCUCAACCAGAAGGUCUGUAAUCACUUUAAGGGUA [U39G A55G A69G A98G A118G U130C] | 0.1 |
| GUUAACGGACAUAGGCCAUGGAAACUAGGAGCACCAUUUCGCUGCCAGUGAAGAAACGAACAAAGAAAAUCUGGGCCAUGCAGGCAUCAAAAGAAAUAGUCUUGCGCUCAACCAGAAAGUCUGUAAUCAUUUUAAGGGUA [U9A U57C G79U] | 0.17 |
| GUUAACGGUCAUAGGCCAUGGAAACUAGGAGCACCUUUUCGCUGCCAGUGACGAAAUGAACAAAGAAAAUCAGGGCCAGGCAGGCAUCAAAAGAAAUAGUCUUGCGCUCGACCAGAAUGUCUGUAAUCAUUUUAAGGGUA [A36U A52C U72A A110G A118U] | 0.01 |

| Variant | self-cleavage |
| --- | --- |
| GUUAACGGUCAUAGGCCAUGGAUACUAGGAGCACCAUUUCGCUGCCAGUGAAGAAAUGUACAAAGAAAAUCUGGGCCAGGCAGGCAUCAAAAGAAAUAGUCUCGCGCUCAACCAGAAAGUCUGUAAUCAUCUUAAGGGUA [A23U A59U U103C U131C] | 0.28 |
| GUUAACGGUCAUAGGCCAUGGAAACUAGGAGCACCAUUUCGCUGCCAGUGAGGAAAUGAACAAAGAAAAACUGGGCCAGGCAGGCAUCAAAAGAAAUAGUCUUGCGCUCAACCAGAAAGUCUGUACUCAUUUUAAGGGUA [A52G U70A A126C] | 0.26 |
| GUUAACGGUCGUAGGCCAUGGAAACUAGGUGCACCACUUCGCUGCCAGUGAAGAAAUGAACAAAGAAAAUCUGGGCCAGGCAGGCAUCAAAAGAAAUAGUCUUGCGCUCAACCAGAAAGUCUGUAAUCAUUUUAAGGGUA [A11G A30U U37C] | 1.32 |
| GUUAACGGUCAUAGGCCAUGGAAACUAGGAGCACCAUUUCGCUGCCGGUGAAGUAAUGAACAAAGAAAAUCUGGGCCAGGCAGGCAUCAAAAGAAAUAGUCUUGCGCCCAACCAGAAGGUCUGUAAUCAUUUUAAGGGUA [A47G A54U U108C A118G] | 0 |
| GUUAACGGUCAUAGGCCAUGGAAACUAGGAGCACAAUUUCGCUGCCUGCGAAGAAAUGAACAAAGAAAAUCUGGGCCAGGCAGGCAUCAAAAGAAAUAGUCUUGCGCUCAACCAGAAAGUCUGUAAUCAUUUUAAGGGUA [C35A A47U U49C] | 0.47 |
| GUUAACGGUCAUAGGCCAUGGAAGCUAGGAGCACCAUUCCGCUGCCAGUGAAGAAAUGAACAAAGAAAAUCCGGGCCAGGCAGGCAUCAAAAGAAACAGUCUUGCGCUCAACCAGAAAGUCUGUAAUCACUUUAAGGGUA [A24G U39C U72C U97C U130C] | 0.01 |
| GUUAACGGUCAUAGGCCAUGGAAACUAGGAGCACCUUUUCGCUGCCAGUGAGGAAAGGAACAAAGAAAAUCUGGGCCAGGCAGGCAUCAAAAGAAAUAGUCUUGCGCUCAACCAGAAAGUCUGUAAUCAUUUUAAGGGUA [A36U A52G U57G] | 1.35 |
| GUUAACGGUCAUAGGCCAUGGAAACUAGGAGCACCAUUUCGCCGCCAGUGAAGAAAUGCACAAAGAAAAUCUGGGCCAGGCAGGCAUCAAAAGAAAUAGUCUUGCGCUCAGCCAGAAAGUCUGUAAUCAUUUUAGGGGUA [U43C A59C A111G A135G] | 0.01 |
| GUUAACGGUCAUAGGCCAUGGAAACUAGGAGCACCAUUACGCUGCCAGUGACGAAACGACCAAAGAAAAUCUGGGCCAGGCAGGCAUCAAAAGAAGUAGUCUUGCGCUCAACCAGAAAGUCUGUAAUCAUUUUAAGGGUA [U39A A52C U57C A60C A96G] | 0.69 |
| GUUAACGGUCAUAGGCCAUGGAAACUGGGAGCACCAUUUCGCUGCCAGUGAAGAAAUGAACAAAGAAAAUCUGGGCCAGGCAGGCACCAAAAGAAAUAGUCUUGCGCUCAACCAGAAAGUCCGUAAUCAUUUUAAGAGUA [A27G U87C U122C G137A] | 0.49 |
| GUUAACGGUCAUAGGCCAUGGAAACUAGGAGCACCAUUUCGCUGCCAGUGAAGAAAUGAACAAAGAAAGUCUGGGCCAGGCAGGCAUCAAAAGAAAUAGUCUAGCGCUCAACCAGAAAGUCCGUAAUCAUUUUAAGGGUA [A69G U103A U122C] | 0.39 |
| GUUAGCGGUCAUAGGCCAUGGAAACUAGGAGCACCAUCUCGCUGCCAGUGAAGAAAUGAACAAGGAAGAUCUGGGCCAGGCAGGCAUCAAAAGAAAUAGUCUUGCGCCCAACCAGAAAGUCUGUAAUCAUUUUAAGGGUA [A5G U38C A64G A68G U108C] | 0.09 |
| GUUAACGGUCAUUGGCCAUGGAAACUAGGAGCACCAUUUCGCUGCCAGUGAAGAAAUGAACAAAGAAAAUCUGGGCCAGGCAGGCAUCAAAGGAAAUAGUCUUGUGCUCAACCAGUAAGUCUGUAACCAUUUUAAGGGUA [A13U A92G C105U A116U U127C] | 0.06 |
| GUUAGCGGUCAUAGGCCAUGGAAACUAGGAGCACCAUUUCGCUGCCAGUGAAGAAAUGAACAAAGAAAAUCUGGGCCAGGCAGGCAUCAAAAGAUAUAGUCUUGCGCUCAACCAGUAAGUCUGUAAUCAUUUUAAGGGUA [A5G A95U A116U] | 0.1 |
| GUUAACGGUCAUAGGCCGUGGAUACUAGGAGCACCAUUUCGCUGCCAGUGAAGAAAUGAACAAAGAAAAUCUGGGCCAGGCAGGCAUCAAGAGAAAUAGUCUUGCGCUCAACCAGAGAGUCUGUAAUCAUUUUAAGGGUA [A18G A23U A91G A117G] | 1.84 |
| GUUAACGGUCAUAGGCCAUGGAAACUAGGAGCACCAUUUCGCUGCCAGUGAAGAAAUGAACAAAGAAAAUCUGGGCCAGGCAGGCAUCAAAAGAAAUAGCCUUGCGCUCAGCCAGAGAGUCUGUAAUCAUUUUAAGGGUA [U100C A111G A117G] | 0.01 |
| GUUAACGGUCAUAGGCCAUGGAAACUAGGAGCACCAUUUCGCUGCCAGCGAAGAAAUGAACAAAGAAAAUCUGGGCCAGGCAGGCAUCAAAAGAAAUAGUCCUGCGCUCAACCAGAAAGUCUGUAAUCGUUUUAAGGGUA [U49C U102C A129G] | 1.15 |
| GUUAGCGGUCAUAGGCCACGGGAACUAGGAGCGCCAUUUCGCUGCCAGUGAAGAAAUGAACAAAGAAAAUCUGGGCCAGGCAGGCACCAAAAGAAAUAGUCUUGCGCUCAGCCAGAAAGUCUGUAAUCAUUUUAAGGGUA [A5G U19C A22G A33G U87C A111G] | 0.08 |
| GUUAACGGUCAUAGGCCAUGGAAGCUAGGGGCACCAUUUCGCAGCUAGUGAAGAAAUGAACAAAGAAAAUCUGGGCCAGGCAGGCAUCAAAAGAAAUAGUCUUGCGCUCAACCAGAAAGUCUGUGAUCAUUUUAAGGGUA [A24G A30G U43A C46U A125G] | 0.55 |
| GCUAACGGUCAUAGGCCAUGGAAACUAGGAGCACCAUUUCGCUGCCAGUGGAGAAAUGAACAAAGAAAAUCUGGGCCAGGCAGGCAUCAAAAGAAAUAGUCUUGCGCUCAACCAGAAAGUCUGUAAUCACUUUAAGGGUA [U2C A51G U130C] | 0.14 |
